Test results published in PubChem BioAssay AID686978 (National Center for Advancing Translational Sciences (NCATS), 2013).
Among all 420,000 compounds or so, about 64,000 (15%) were called active. Inconclusive means that the source gave no clear call. Such entries were picked first, then a sample of the others. Calls come from the whole dose curve; as a rule, active = well fitted inhibition curve with a large enough effect; inconclusive = small, poorly fitted or top-dose-only effect; inactive = flat fitted curve, though single readings scatter. Potencies of inconclusive entries are left out as doubtful fits.

Experiment: qHTS for Inhibitors of human tyrosyl-DNA phosphodiesterase 1 (TDP1): qHTS in cells in absence of CPT; note: nearly all actives have a fitted effect of over 55% in size
Details: DT40 Tdp1-/- hTDP1 cells, no CPT, ATP luminescence, 48 h; activity change, negative = growth inhibition: at 46.2 µM (top of the series)
How it was run: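 Growth kinetics read by CellTiter-Glo luminescence after ≥48 hr at 37 °C. Cells: DT40 Tdp1-/- stably carrying human TDP1, 400 per well, compound exposure in the absence of CPT (DMSO vehicle).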
% is set by controls: 0 for no effect and ±100 for the full control effect; potency is the fitted concentration of half-maximal effect; tags give direction and shape of the fitted curve.

Row | Structure (SMILES) | Potency | activity change, negative = growth inhibition
1 | COc1ccc(CCCNC(=O)C2(C)Cc3c(-c4cccc(C(N)=O)c4)ccnc3O2)cc1 (centres undefined) | inconclusive [inhibitor, single point] | 
2 | CCOC(=O)c1ccc(CN(Cc2ccc(F)cc2)S(=O)(=O)c2ccc(F)c(C(=O)Nc3ccccc3C(F)(F)F)c2)cc1 | inactive | 
3 | Cn1c2c(c(=O)n(C)c1=O)C(c1ccccc1C(F)(F)F)CC(=O)N2 (centres undefined) | inconclusive [inhibitor, single point] | 
4 | Cc1ccc(C(C(=O)NCC2CCCO2)N(Cc2ccccc2F)C(=O)Cn2nnc(-c3cccs3)n2)cc1 (centres undefined) | inconclusive [inhibitor, single point] | 
5 | O=C1/C(=C/c2cccnc2)SC(=S)N1CCc1ccccc1 | inconclusive [inhibitor, single point] | 
6 | CC1(C)CC(=O)C/C(=N/NC(=O)COc2ccc3ccccc3c2Br)C1 | inconclusive [inhibitor, single point] | 
7 | COc1ccc(N2C(=S)NC3N2C(=S)NC3(C)c2ccccc2)cc1 (centres undefined) | inconclusive [inhibitor, single point] | 
8 | O=C1C=C(c2ccc3c(c2)oc2ccccc23)C[C@@H](c2ccc(Cl)cc2)C1 | inconclusive [inhibitor, single point] | 
9 | CN(C)c1ccc(/C=C/c2nc3ccccc3c(=O)n2-c2ccc(C(=O)O)cc2)cc1 | inconclusive [inhibitor, single point] | 
10 | CC1(C)Cc2cccc(OCC(=O)Nc3ccccc3F)c2O1 | inconclusive [inhibitor, single point] | 
11 | O=C(O)CC1c2ccccc2CCN1S(=O)(=O)c1cccs1 (centres undefined) | inactive | 
12 | COc1ccccc1/C=C/CN1CCCC(CO)(CCc2ccccc2)C1 (centres undefined) | inconclusive [inhibitor, single point] | 
13 | Cc1cc(C)c(N(C(=O)Cn2nnc3ccccc32)C(C(=O)NC(C)(C)C)c2ccsc2)c(C)c1 (centres undefined) | inconclusive [inhibitor, single point] | 
14 | Cc1cc(NCCCn2ccnc2)n2nc(-c3ccc(Cl)cc3)cc2n1 | inconclusive [inhibitor, single point] | 
15 | Cc1ccc(C(=O)N2CCN(c3cccc(Cl)c3)CC2)cc1-n1c(C)nc2cccnc21 | active: 9.2 µM | 
16 | CCOc1nc(Nc2ccccc2F)nc(OCC)n1 | inconclusive [inhibitor, single point] | 
17 | CC1(C)NC(=O)N(CC(=O)N2CCN(S(=O)(=O)c3ccccc3F)CC2)C1=O | inactive | 
18 | Cc1nnc(N/N=C/c2ccccn2)[nH]c1=O | active: 2.91 µM | 
19 | O=C(Nc1ccccn1)c1ccc(Cl)c(S(=O)(=O)N2CCc3ccccc32)c1 | inconclusive [inhibitor, single point] | 
20 | Cc1cc(NC(=O)CSc2ccc3nnc(-c4cccs4)n3n2)no1 | inconclusive [inhibitor, single point] | 
21 | CCNC(=O)CC1C(=O)N(c2ccc(F)cc2)C(=O)N1Cc1ccc(OC)c(OC)c1 (centres undefined) | inconclusive [inhibitor, single point] | 
22 | O=C(Nc1ccccc1Cl)c1ccc2nsnc2c1 | inactive | 

Row | Structure (SMILES) | Potency | activity change, negative = growth inhibition
23 | Cc1ccc(S(=O)(=O)N2CCCC(C(=O)NCCc3ccc(S(N)(=O)=O)cc3)C2)cc1 (centres undefined) | inconclusive [inhibitor, partial curve] | 
24 | O=C(O)CCC(=O)N1CC=C(c2ccccc2)CC1 | inactive | 
25 | CN(C(=O)c1ccccc1)c1nc2ccccc2s1 | inconclusive [inhibitor, partial curve] | 
26 | COc1cc(Cl)c(C)cc1NC(=O)C1CCCN(c2ncnc3onc(-c4ccc(F)cc4)c23)C1 (centres undefined) | active: 8.2 µM | 
27 | Fc1ccc(N2CCN(Cc3cnc(Oc4ccc(Br)cc4)s3)CC2)cc1 | inactive | 
28 | CC1(C)Cc2ccccc2-c2c1c(=O)n(Cc1ccccc1)c1nnnn21 | inconclusive [inhibitor, partial curve] | 
29 | S=C(NCCc1ccccc1)N/N=C/c1ccccc1Cl | inconclusive [inhibitor, single point] | 
30 | CC(C)(C)c1ccc(S(=O)(=O)N2CCCC2C(=O)NC2=NCCS2)cc1 (centres undefined) | inconclusive [inhibitor, single point] | 
31 | COc1nc(NCCC2=CCCCC2)nc(OC)n1 |  | inconclusive: -19.1% [inhibitor]
32 | COc1ccc(-c2nc(CS(=O)CC(=O)N3CCN(C)CC3)c(C)o2)cc1 (centres undefined) | inactive | 
33 | CCc1ccccc1N(CC)C(=O)C(=O)Nc1ccc2nc3n(c(=O)c2c1)CCCCC3 | inconclusive [inhibitor, single point] | 
34 | O=C(c1ccc(Br)o1)N1CCC(c2nc3ccccc3[nH]2)CC1 |  | inconclusive: -33.5% [inhibitor]
35 | Cc1ccccc1Nc1nnc(SCC(=O)NC2CCCc3ccccc32)s1 (centres undefined) | inconclusive [inhibitor, single point] | 
36 | Cc1ccc(/C=C/C(=O)NC(C)c2ccccc2)cc1 (centres undefined) | inconclusive [inhibitor, single point] | 
37 | CC(C)c1cc(C(=O)NCc2ccc(F)cc2)c(N)s1 | inconclusive [inhibitor, single point] | 
38 | Cc1ccc(NC(=O)Cn2c(=O)cnc3ccccc32)cc1S(=O)(=O)N1CCOCC1 | inconclusive [inhibitor, single point] | 
39 | O=C(O)CC(c1cccc2ccccc12)n1cccc1 (centres undefined) | inactive | 
40 | Brc1ccc(-c2csc(N/N=C/c3cccnc3)n2)cc1 | inconclusive [inhibitor, single point] | 
41 | COC(=O)c1c(-c2ccc(Cl)cc2)noc1N1CCN(c2ccccc2F)CC1 | inactive | 
42 | COc1ccc(S(=O)(=O)N(C)CC(=O)NC2CC2)cc1 | inactive | 
43 | CCC(Sc1nnc(C)c(=O)[nH]1)C(=O)Nc1cccc2ccccc12 (centres undefined) |  | inconclusive: -32% [inhibitor]
44 | O=C1c2cccc3cccc(c23)C(=O)N1CCCc1n[nH]c(=S)n1-c1ccccc1 | inconclusive [inhibitor, single point] | 
